# The RNAGym collection of RNA variant scans (doi:10.7554/elife.90254)
# The source gives no read counts; variants with many changes may rest on few reads.
# B1: LINE1-mini (parent)
# chain: GGCAGAGCUCAACACAGCGUGGCAAAGUGGCUGUGGCUAGACUGCC
# Variants of: B1
# Test: self-cleavage, relative activity (ratio to wild type); higher = more cleavage; in vitro, sequencing; the parent is a self-cleaving ribozyme
row,Variant,self-cleavage
1,GGCAGAGCUCAACAGAGCGUGGCAUAGUGGCUGUGGCUAGCCUGCC,0.1
2,GGCAGAGCUCAACAAAGCGGGUCAAAGUGGCUGUGGCUAGACUGCC,0.07
3,GGCAGAGCUCAACAAAGCGUGGCAAAGAGGCUGUUGCUAGACGGAC,0.05
4,GGCAGAGCUCAACAGAGUGUGGAAAAGUGGCUGUGGCUAGACUGCC,0.13
5,GGCAGAGCUCAACAGAUCGUAGCACUGUGGCUGUGGCUAGACUGCC,0.09
6,GGCAGAGCUCAACAGAGGUUUGCAAAUUGGCUGUGGCUACACUGCC,0
7,GGCAGAGCUCAACAGAGCGUGGGAAAGUGACUGUGGCUAGACUGCC,0.02
8,GGCAGAGCUCAACAGAGCGUGGUAAAGUGGCUGUUGCUAGACUGAC,0.01
9,GGCAGAGCUCAACAGAGCAUGGCAAACUGGCUGUGGAUAGACUGCC,0.17
10,GGCAGAGCUCAACAGGGCGUGGCCAAGUGGCUGUGGCUAGACUGCC,0.01
11,GGCAGAGCUCAACAGAGCGUGGCAAAGUGGAUAUGGCUAGACUGAC,0
12,GGCAGAGCUCAACAGAGCGUGGCAAAGUGGAUGUGGCUAGACUGCA,0.01
13,GGCAGAGCUCAACAAAGCGUGGCAAAGUGGCUGAGGCUAGACUGCA,0.01
14,GGCAGAGCUCAACAGAUCGUGGCAAAGUGGCUCUGGCUAGACUGCC,0.03
15,GGCAGAGCUCAACAGAGGGUCGUAAAGUGGCUGUGGCUAGACUGCC,0.14
16,GGCAGAGCUCAACAAAGCGGUGCAAAGUGUCUGUGACUAGACUGCA,0.02
17,GGCAGAGCUCAACAGAGCGUGACAAAGUGGCUGUGGCUACACUGCC,0.03
18,GGCAGAGCUCAACAGAGUGUGUCAAAGGGGCUGUGGCUGGUCUGCC,0.02
19,GGCAGAGCUCAACAGAGCGUGGCGCAGUGGCUGUGGCUAGACUGCC,0.02

row,Variant,self-cleavage
1,GGCAGAGCUCAACAGAACCUGACAAAGUGGCUGUGGCUAGACUGAC,0.02
2,GGCAGAGCUCAACAGAGGGUGGCAAAGUGGCUGUGUCUAGACUGCC,0.02
3,GGCAGAGCUCAACAAAGCGUGGCAAAGUGGCUGUGGCAAGACUACC,0.06
4,GGCAGAGCUCAACAGAGUGCGGCAAAGUGGCUGUGGCUUACCUGCC,0.04
5,GGCAGAGCUCAACAAAGCGUGGCAAAGAGUCUGUGGCUAGACUGCC,0.06
6,GGCAGAGCUCAACAGAUGGUGGCAAAGUGGCUGUGGCUAGACUGCC,0.09
7,GGCAGAGCUCAACAAAGCGUGGCAAAGGGGCUGUGGCUAGACUACC,0.03
8,GGCAGAGCUCAACAGAGCGUGGUAAAGUGGCUCUGGCUAGACUGCC,0.34
9,GGCAGAGCUCAACAGAGCUUGGCAAAGUGGCUGUCGCUAAACUGCC,0
10,GGCAGAGCUCAACAGAGCGUGGUAAAGUGGCUGUGGCUAUACUGCC,0.02
11,GGCAGAGCUCAACAGCGUGUGGCAAAGUGGCUGUGGCUAGACUGCC,0.09
12,GGCAGAGCUCAACAGAGGGGGGCAAAGUGGCUGUGGCUAGACUGCC,0.04
13,GGCAGAGCUCAACAAAGCGGGGAAAAGUGGAUGUGGCUAGACUGCC,0
14,GGCAGAGCUCAACAGAGUGUGGCAAAGUGCCUGUGGCUAGACUGCC,0.06
15,GGCAGAGCUCAACAGAGAGUGGCACAGUGGCUGUGGCUAGACUGCC,0.03
16,GGCAGAGCUCAACAGAGCAUGGCAAAGUGGCUGCGGCUAGACUGCC,0.04
17,GGCAGAGCUCAACAGAGCGUGGCAAAGUGGCUGUGGCUAGAAUGGC,0.03
18,GGCAGAGCUCAACAAAGCGUGGCAAAGCGGCAGUGGCUAGACUGCC,0.02
19,GGCAGAGCUCAACAGAGCGUUGCAAAGUGGCUGUGGCUAGACUUCC,0.02

row,Variant,self-cleavage
1,GGCAGAGCUCAACAGGGCGUGGCCAAGUGGCUGUGGCUGGACUGCC,0.03
2,GGCAGAGCUCAACAGAGUGUGACAAAGAGGCUGUGGCUAGUCUGCG,0.03
3,GGCAGAGCUCAACAGAUCGAGGCAAAGUUGCUGUGGCUAUACUGCC,0.03
4,GGCAGAGCUCAACAGAGCGUAGCAGAGUGGCUGUGGCUAGACUGCC,0.03
5,GGCAGAGCUCAACAGCGCGUGGCAAAGUGGCUGUGCCUAGACAGCC,0.02
6,GGCAGAGCUCAACAGAGCGUGGCAACGUGGAUGUGGCUAGACUGCC,0.01
7,GGCAGAGCUCAACAGAGCAUGGCAAAGUAGAUGUGGCUAGACUGCC,0.02
8,GGCAGAGCUCAACAGAGCGUGGCACAGUGGCUGUGGCUAGACUGCG,0.05
9,GGCAGAGCUCAACAGAGCGUAGCAAAGUGGCUGCGGCUAGACUGGC,0.02
10,GGCAGAGCUCAACAAAGCGUGGCAAAGUGGCCGUGUAUAGACUGCC,0.02
11,GGCAGAGCUCAACAGGGCGUGGCGAAGCGGCUGUGGCUAGACUGGC,0.02
12,GGCAGAGCUCAACAGAGCGUGGCAAAGUGGCUGUGGCUUGAGUGCC,0.02
13,GGCAGAGCUCAACAGAUCGUGGCAAAGUGGCUGUGGCUAGACAGCC,0.15
14,GGCAGAGCUCAACAGAGCGUGGCCAAGUCGCUUUGGCUAGACUUCC,0
15,GGCAGAGCUCAACAGAGUGUGGCAAAUUGGCUGUGGCUAGAGUGCC,0.06
16,GGCAGAGCUCAACAAAGCGUGGCAAAGAGGUUGUGGCUAGACUGCC,0.04
17,GGCAGAGCUCAACAGAGCGUGGCAUAGUGUCUGUGGCUAGACUGUC,0.02
18,GGCAGAGCUCAACAAAGCGCGGCAAAGUGGCUGUGGCUAGACUUCC,0.01
